The text below walks through data of the supplement of paper PMC3334620.

Whole data set: some 33,000 sequences, median “E-score (-0.5 to 0.5)” near -0.035, cut for the highest 2% near 0.35. The list shows a part of the results.

The assay deals with T1, Pdr3 (UniProt P33200).
T1 sequence: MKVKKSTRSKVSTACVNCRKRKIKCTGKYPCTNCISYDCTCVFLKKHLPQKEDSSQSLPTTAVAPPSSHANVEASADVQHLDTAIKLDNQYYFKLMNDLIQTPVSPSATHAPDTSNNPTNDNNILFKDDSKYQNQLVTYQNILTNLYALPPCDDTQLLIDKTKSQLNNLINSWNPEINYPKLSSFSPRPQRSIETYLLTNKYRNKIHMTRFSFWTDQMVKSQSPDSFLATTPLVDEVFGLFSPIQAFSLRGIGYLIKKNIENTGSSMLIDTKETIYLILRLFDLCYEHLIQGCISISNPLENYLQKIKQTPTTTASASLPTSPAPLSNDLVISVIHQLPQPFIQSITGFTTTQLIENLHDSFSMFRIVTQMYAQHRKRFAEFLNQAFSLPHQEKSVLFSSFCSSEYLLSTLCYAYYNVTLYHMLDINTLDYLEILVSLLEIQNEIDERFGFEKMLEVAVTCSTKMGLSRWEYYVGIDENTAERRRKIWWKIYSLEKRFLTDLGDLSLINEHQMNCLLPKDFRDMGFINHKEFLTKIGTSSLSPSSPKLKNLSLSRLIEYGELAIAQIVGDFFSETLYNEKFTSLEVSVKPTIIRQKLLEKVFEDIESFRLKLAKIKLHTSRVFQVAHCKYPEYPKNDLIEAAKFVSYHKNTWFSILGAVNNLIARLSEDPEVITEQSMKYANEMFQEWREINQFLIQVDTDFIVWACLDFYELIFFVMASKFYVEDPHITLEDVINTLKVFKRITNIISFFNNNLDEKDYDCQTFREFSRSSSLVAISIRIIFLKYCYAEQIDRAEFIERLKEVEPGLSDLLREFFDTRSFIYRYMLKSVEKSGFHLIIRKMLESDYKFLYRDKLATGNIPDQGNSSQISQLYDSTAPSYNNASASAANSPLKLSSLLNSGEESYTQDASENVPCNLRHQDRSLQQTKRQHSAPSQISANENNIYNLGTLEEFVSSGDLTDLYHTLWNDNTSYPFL
Description: PBM E-score (8-mer binding enrichment) (E-score (-0.5 to 0.5)); higher = stronger / more preferred TF binding; most listed sequences are background and not binding sites. The conditions noted are these: protein concentration: 200 nM; construct: GST-full length. How it is done:
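Universal 'all 10-mer' protein binding microarrays (Agilent AMADID 015681) probed with GST-tagged S. cerevisiae TFs (full-length or DBD) made by in vitro transcription/translation (PURExpress), about 100-200 nM. Bound TF was detected with fluorescent anti-GST. Each ungapped 8-mer (which stands for itself and its reverse complement) is scored by the PBM enrichment score (E-score), a modified Wilcoxon-Mann-Whitney statistic from -0.5 to +0.5, computed with the Universal PBM Analysis Suite. Scale: above 0.35 generally sequence-specific binding.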
As for AGAATCCC, the “PBM E-score” value stood at 0.0887.

For the sequence CTCGGGGC, the “PBM E-score” value worked out at 0.144.

As for GGGCAAAA, the “PBM E-score” value was found to be 0.216.

With ACGGGCAT, the “PBM E-score” value was 0.0131.

Consider GAACGCTA, for which the “PBM E-score” value is -0.185.

For the sequence GCAGGGAC, the “PBM E-score” value is -0.176.

For the sequence GCTAGAGC, the “PBM E-score” value was -0.272.

For the sequence GTATAGCA, the “PBM E-score” value is -0.0257.

Turning to CCTTCCAA, the “PBM E-score” value is -0.0521.

Take CATAGGCG: the “PBM E-score” value is -0.0764.

TACACCTA: the “PBM E-score” value is -0.108.

Turning to GCGTACAC, the “PBM E-score” value was -0.23.

For the sequence ATCGGATG, the “PBM E-score” value is 0.256.

For ATTAGATC, the “PBM E-score” value is 0.0761.

For GCAAGCTA, the “PBM E-score” value is -0.141.

Regarding CACCTACA, the “PBM E-score” value is -0.202.

For AACTGACT, the “PBM E-score” value was -0.153.

For GATTCTGA, the “PBM E-score” value was -0.0272.

For ATCTTTAC, the “PBM E-score” value is -0.0847.

Consider CAATACTG, for which the “PBM E-score” value was -0.168.

Take CTTGCAGC: the “PBM E-score” value was -0.0894.

For the sequence AACGTAAG, the “PBM E-score” value was -0.194.

In the case of AAGTAATA, the “PBM E-score” value was -0.074.

CCAAGAAC: the “PBM E-score” value was -0.155.

Consider AGTTCAAT, for which the “PBM E-score” value was -0.139.

ACCTAATG: the “PBM E-score” value is -0.305.

As to CCGCCTAC, the “PBM E-score” value is 0.127.

Take GCACACAC: the “PBM E-score” value came out at 0.019.

Regarding GTCCACAA, the “PBM E-score” value was -0.163.

Turning to CCCAAAAA, the “PBM E-score” value was -0.0957.

Take TAATCGTA: the “PBM E-score” value was -0.1.

Consider TCCTGAGA, for which the “PBM E-score” value was -0.258.

As for AGAGGATC, the “PBM E-score” value is -0.0144.

With ATTGCGTG, the “PBM E-score” value stood at 0.0079.

For ACGATCCG, the “PBM E-score” value amounted to 0.368.

ACCACAAG: the “PBM E-score” value stood at 0.0845.

As for CGGTCCGC, the “PBM E-score” value was 0.323.

Turning to ATGTCGAG, the “PBM E-score” value is -0.0433.

Turning to GGTCGAGA, the “PBM E-score” value is -0.0302.

On to TTAGCTAA, for which the “PBM E-score” value is -0.342.

As to ACTACAAA, the “PBM E-score” value came out at 0.12.

Turning to AGGTAACT, the “PBM E-score” value is -0.0303.

With CCTCAAGA, the “PBM E-score” value was -0.0908.

On to AAAGAGAA, for which the “PBM E-score” value was -0.103.

Take CCCTTTCC: the “PBM E-score” value was 0.082.

In the case of ACCAACAA, the “PBM E-score” value was found to be 0.137.

In the case of GTATGCCA, the “PBM E-score” value was -0.15.

Turning to ACTTTCCC, the “PBM E-score” value is 0.0862.

CTTGTTTA: the “PBM E-score” value was -0.0276.

For AACGCGGT, the “PBM E-score” value is 0.1.

As to CAATCTTA, the “PBM E-score” value was -0.104.

Take CCGTGATC: the “PBM E-score” value was 0.232.

For the sequence ACCTTGCA, the “PBM E-score” value was -0.141.

Regarding ACCAGCGG, the “PBM E-score” value is 0.117.

As for TCAACGAA, the “PBM E-score” value was found to be 0.0322.

Regarding ATGGCCAG, the “PBM E-score” value came out at 0.0413.

In the case of AGCGAAAA, the “PBM E-score” value was -0.0892.

On to ATAAGCTA, for which the “PBM E-score” value is -0.181.

As for CGCCAGTC, the “PBM E-score” value was -0.0682.

Consider ACTTGCAG, for which the “PBM E-score” value is -0.177.

Regarding CTTAACCC, the “PBM E-score” value is -0.157.

Take TTGAAAAA: the “PBM E-score” value was -0.101.

Turning to AAAGTCTT, the “PBM E-score” value is -0.128.

ACTCTACT: the “PBM E-score” value was -0.0826.

Take ACGACGAA: the “PBM E-score” value came to 0.0114.

Take AGAGAAGA: the “PBM E-score” value is -0.161.

Take CCCCCAGA: the “PBM E-score” value is -0.319.

As to ATTGCGTC, the “PBM E-score” value came to 0.163.

As for CACCCAAC, the “PBM E-score” value is 0.0734.

For AACTTATG, the “PBM E-score” value is -0.11.

For CGTAATTC, the “PBM E-score” value was -0.0514.

AGTATGTC: the “PBM E-score” value came out at 0.0221.

In the case of GCCCAAAC, the “PBM E-score” value was found to be 0.0686.

Turning to GAAATATC, the “PBM E-score” value turned out to be 0.195.

ACCTACTC: the “PBM E-score” value turned out to be 0.0138.

On to AGCCGGCC, for which the “PBM E-score” value stood at 0.266.

With AAGTCAGA, the “PBM E-score” value is -0.0495.

With CACGGTCA, the “PBM E-score” value came to 0.0472.

With AAGCTTGA, the “PBM E-score” value is -0.0429.

Consider CCCTCGGA, for which the “PBM E-score” value is 0.373.

As to CAGGCCGA, the “PBM E-score” value came to 0.0831.

With ACAACGAT, the “PBM E-score” value amounted to 0.052.

As to CTTCTCAC, the “PBM E-score” value is 0.0861.

With CGACCCAG, the “PBM E-score” value is -0.0252.

Regarding AGCCGGCG, the “PBM E-score” value is 0.372.

Take ACACGACA: the “PBM E-score” value is -0.0523.
